Results as given in PubChem BioAssay AID1461 (National Center for Advancing Translational Sciences (NCATS), 2008).
Among all 220,000 compounds or so, about 2,300 (1%) were called active. Inconclusive means that the source gave no clear call. Such entries were picked first, then a sample of the others. Calls follow the shape of the dose curve; as a rule, active = well fitted inhibition curve with a large enough effect; inconclusive = small, poorly fitted or top-dose-only effect, or effect the other way; inactive = no such curve, though single readings can be large or run the other way. A potency beside an inconclusive call is a rough fit, not a confirmed value.

These molecules were tested against Neuropeptide S receptor (Homo sapiens) (UniProt Q6W5P4) (assay: qHTS Assay for Antagonists of the Neuropeptide S Receptor: cAMP Signal Transduction). Conditions: CHO-NPSR cells, cAMP TR-FRET, antagonist mode; activity change, negative = inhibition: at 38.3 µM (top of the series) unless noted.
Chain of UniProt Q6W5P4 (Q6W5P4 whole entry, looked up): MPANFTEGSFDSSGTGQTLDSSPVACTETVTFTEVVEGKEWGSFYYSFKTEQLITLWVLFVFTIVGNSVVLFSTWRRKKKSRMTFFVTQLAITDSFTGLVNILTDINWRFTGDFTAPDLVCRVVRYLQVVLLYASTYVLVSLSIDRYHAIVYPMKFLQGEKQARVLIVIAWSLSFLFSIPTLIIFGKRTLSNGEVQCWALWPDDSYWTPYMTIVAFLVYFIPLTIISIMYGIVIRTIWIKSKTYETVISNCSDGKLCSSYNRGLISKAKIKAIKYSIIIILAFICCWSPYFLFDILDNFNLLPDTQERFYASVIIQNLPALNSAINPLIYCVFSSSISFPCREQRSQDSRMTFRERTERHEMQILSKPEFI
% is scaled to controls: 0 for no effect and ±100 for the full control effect; potency is read from the fitted curve at half-maximal effect; tags tell the direction and shape of the fitted curve.
Also: nearly all actives have a fitted effect of over 50% in size.

| SMILES | activity change, negative = inhibition | Potency |
| --- | --- | --- |
| COCc1[nH]nc2c1C(c1c(F)cccc1Cl)C(C#N)=C(N)O2 (configuration not stated) | inactive: -23.9% [at 46.1 µM] | – |
| Cc1c(Cc2ccccc2)sc(NC(=O)C(C)(C)C)c1C(N)=O | inactive: -45.4% | – |
| O=C(NCc1cccs1)c1cc(-c2ccccn2)nc2ccc(Br)cc12 | – | active: 10 µM |
| CCOc1ccc2[nH]c(=O)c(CN(CCN3CCCC3)C(=S)Nc3ccccc3OCC)cc2c1 | – | inconclusive: 25.1 µM [activator, single point] |
| O=C(Nc1ccccc1C(=O)O)c1ncn[nH]1 | – | inconclusive: 25.1 µM [inhibitor, single point] |
| Cc1ccc(NC(=O)c2nc[nH]c2C(=O)N[C@@H](CCCCNC(=O)OC(C)(C)C)C(=O)OC(C)(C)C)cc1 | – | inconclusive: 12.6 µM [inhibitor, single point] |
| COc1cccc2cc(C(=O)NCc3ccco3)c(=O)oc12 | inactive: 6.9% | – |
| Nc1c(C(=O)Nc2ccccc2F)sc2nc(Cc3ccccc3)cc(C(F)(F)F)c12 | – | inconclusive: 12.6 µM [activator, partial curve] |
| CCOc1cc2[nH]c(=O)n(CCC(=O)NCc3ccc(OC)cc3)c(=O)c2cc1OCC | – | inconclusive: 5.01 µM [inhibitor, single point] |
| COc1ccc(C2NC(=S)NC(C)=C2C(=O)Nc2ccccn2)cc1OC (configuration not stated) | inactive: 10.3% | – |
| CSc1nc(-c2ccc(Cl)cc2)nn1C(=O)c1ccccc1 | – | inconclusive: 25.1 µM [inhibitor, single point] |
| O=C(Nc1cccc(Cl)c1)C1=Cc2cc(Cl)ccc2OC1 | – | inconclusive: 12.6 µM [inhibitor, single point] |
| COc1ccc(Cn2c(C3CCCCC3)nc3c(c(=O)c4ccccc4n3C)c2=O)cc1 | – | inconclusive: 10 µM [activator, partial curve] |
| FC(F)(F)c1cccc(Cn2cnc(NC(=S)NCCc3ccccc3)n2)c1 | inactive: -3.89% | – |
| CCOc1cc(/C=N/NC(=O)c2cc(C3CC3)[nH]n2)ccc1O | – | inconclusive: 3.16 µM [inhibitor, single point] |
| Cc1ccccc1OCC(=O)Nc1sc(C(=O)Nc2cccc(C)c2C)c(C)c1C#N | – | active: 3.98 µM |
| N=C1SCC(=O)N1c1ncc(Cc2ccc(F)cc2)s1 | – | inconclusive: 12.6 µM [inhibitor, single point] |
| CCN(CC)c1ccc(N=Nc2ncn[nH]2)cc1 | inactive: -16.8% | – |
| CCCCN(C)/C=N/c1c(C#N)cnn1-c1ccc(C)cc1 | – | inconclusive: 20 µM [inhibitor, single point] |
| O=C1c2ccccc2C(Nc2ccc(Cl)cn2)N1c1cccnc1 (configuration not stated) | inactive: -0.437% [at 46.1 µM] | – |
| CC(=O)NC1C(c2nc3ccccc3s2)=C(c2ccccc2)C(=O)N1c1ccc(C)cc1 (configuration not stated) | – | inconclusive: 25.1 µM [inhibitor, single point] |
| c1nc(NCC2(N3CCOCC3)CCCCC2)c2ccsc2n1 | inactive: 8.68% [at 46.1 µM] | – |
| O=C(O)CCCn1c(O)c(C=C2N=c3ccccc3=N2)sc1=S | inactive: -34% | – |
| COC(=O)c1n[nH]n(-c2cc(Cl)cc(Cl)c2)c1=O | inactive: -28.8% | – |

| SMILES | activity change, negative = inhibition | Potency |
| --- | --- | --- |
| Cc1ccc(NS(=O)(=O)c2ccc(NC(=O)C(C)Sc3ccc(Cl)cc3)cc2)c(C)c1 (configuration not stated) | – | inconclusive: 10 µM [inhibitor, single point] |
| CCc1ccc(C(=O)Nc2cc(C)ccc2F)s1 | inactive: -20.4% | – |
| COCCNC(=O)CCSCc1ccccc1F | inactive: -8.78% [at 46.1 µM] | – |
| CCC1SC2=NC(C)=C(C(=O)OCCOC)C(/C=C/c3ccccc3OC)N2C1=O (configuration not stated) | – | inconclusive: 15.8 µM [inhibitor, single point] |
| Cc1cccc(N2CCN(C(=O)c3cn(C)c(=O)c4c3c3ccccc3n4C)CC2)c1C | – | inconclusive: 10 µM [inhibitor, partial curve, poor fit] |
| O=c1[nH]c2cc(C(F)(F)F)ccc2n1-c1cc(C(F)(F)F)ccc1O | – | inconclusive: 3.98 µM [inhibitor, partial curve] |
| COC(=O)c1ccccc1NC(=O)CSc1nc(O)cc(=O)n1C1CCCC1 | – | inconclusive: 12.6 µM [activator, partial curve] |
| CC(C)OC(=O)C(C(=O)C(F)(F)F)c1cc(NS(=O)(=O)c2ccc3ccccc3c2)c2ccccc2c1O (configuration not stated) | – | inconclusive: 10 µM [inhibitor, single point] |
| O=C(Nc1ccncc1)C1c2ccccc2Oc2ccccc21 | inconclusive: -33% [inhibitor] [at 46.1 µM] | – |
| O=C(Nc1ccc2c(c1)OCCO2)c1coc2ccccc2c1=O | – | inconclusive: 12.6 µM [inhibitor, single point] |
| COc1ccccc1CN(C(=O)Cc1cccs1)C(C(=O)NC1CCCC1)c1ccncc1 (configuration not stated) | – | inconclusive: 7.94 µM [inhibitor, partial curve] |
| COc1ccc(CCNC(=O)Cn2c(=O)n(-c3ccc(C)c(F)c3)c(=O)c3sccc32)cc1OC | inactive: 3.34% | – |
| CCOc1ccc(C2NC(=S)NC3=C2CCc2ccccc23)cc1 (configuration not stated) | – | inconclusive: 25.1 µM [activator, single point] |
| O=C(Nc1cccc(C(=O)O)c1)/C(=C\c1ccc2c(c1)OCO2)NC(=O)c1ccc(Br)cc1 | inactive: 7.54% | – |
| C=CCn1c(SCc2ccc(C#N)cc2)nnc1-c1ccc(C)cc1 | – | inconclusive: 31.6 µM [inhibitor, single point] |
| CCN(CC)CCOC(=O)c1ccc(N)cc1 | – | inconclusive: 5.01 µM [activator, partial curve, poor fit] |
| O=C(CSc1nc(Nc2ccccc2)nc(N2CCOCC2)n1)N1CCc2ccccc21 | inactive: -5.04% [at 46.1 µM] | – |
| Cn1c2ccccc2c2c(C(=O)NCC3CCCO3)cn(C3CCCC3)c(=O)c21 (configuration not stated) | – | inconclusive: 31.6 µM [inhibitor, single point] |
| CCn1cc(Cl)c(C(=O)N2N=C3/C(=C/c4cccs4)CCCC3C2c2cccs2)n1 (configuration not stated) | – | inconclusive: 25.1 µM [inhibitor, single point] |
| COc1ccc(-c2cnnn2-c2ccc(NC(=O)c3ccc(S(=O)(=O)N4CCCCC4)cc3)cc2)cc1OC | – | active: 3.16 µM |
| COc1ccccc1N(CC(=O)Nc1cc(C)on1)S(=O)(=O)c1ccc(Cl)cc1 | inactive: -18.1% [at 46.1 µM] | – |
| Cc1sc(NC(=O)c2ccco2)c(CN2CCN(c3ccccn3)CC2)c1C | – | inconclusive: 10 µM [inhibitor, partial curve] |
| COc1cc(/C=C2\C(=O)NN(c3ccccc3)C2=O)cc([N+](=O)[O-])c1O | inactive: -50.5% | – |
| Cc1ccc(-c2nnn(CC(=O)N(c3ccccc3F)C(CC(C)C)C(=O)NCC3CCCO3)n2)cc1 (configuration not stated) | – | inconclusive: 10 µM [inhibitor, partial curve] |

| SMILES | activity change, negative = inhibition | Potency |
| --- | --- | --- |
| CCC1Oc2ccc(C)cc2N(CC(=O)N(Cc2cccnc2)Cc2ccc(C)o2)C1=O (configuration not stated) | – | inconclusive: 6.31 µM [inhibitor, partial curve] |
| CCCOc1ccc(NC(=O)C2CC(=O)N3CCCN=C3S2)cc1 (configuration not stated) | inactive: -1.33% [at 46.1 µM] | – |
| CCN(CC)S(=O)(=O)c1cccc(C(=O)OCC(=O)C23CC4CC(CC(C4)C2)C3)c1 | – | inconclusive: 12.6 µM [inhibitor, single point] |
| O=C(CCN1CCN(CCO)CC1)Nc1ccc(F)c(F)c1 | inactive: -2.14% [at 46.1 µM] | – |
| Cc1c(/C=N/NC(=O)C2(O)c3ccccc3-c3ccccc32)cnn1C | inactive: 8.74% | – |
| COc1ccc(C2=NN(c3nc(-c4ccccc4)c(CC(=O)O)s3)C(c3ccco3)C2)cc1 (configuration not stated) | inactive: -45.7% | – |
| S=C1NCN(Cc2ccco2)CN1c1cccc2ccccc12 | inactive: 9.88% | – |
| Cc1c(C(=O)NC2CCCc3ccccc32)oc2ccc(S(=O)(=O)N3CCCC3)cc12 (configuration not stated) | – | inconclusive: 10 µM [inhibitor, partial curve] |
| Clc1ccc(OCCn2c(-c3ccco3)nc3ccccc32)cc1 | – | inconclusive: 12.6 µM [inhibitor, single point] |
| CCCNC(=O)Cn1nc(C(F)(F)F)c2c1CCCC2 | inactive: -2.71% [at 46.1 µM] | – |
| CC(=O)O[C@H]1C2OC(=O)C(C)=C2[C@@H]2OC(=O)[C@]3(CCC4OC41C)OC23 (some centres not stated) | inactive: -2.18% | – |
| COc1ccc(-c2cn[nH]c2-c2ccc(OCc3ccccc3F)cc2O)cc1OC | – | inconclusive: 12.6 µM [activator, single point] |
| Nn1c(SCc2ccc(F)cc2)nnc1-c1cccnc1 | – | inconclusive: 12.6 µM [activator, single point] |
| COc1ccc(NS(=O)(=O)c2ccc(N3CCOCC3)c(NC(=O)c3ccccc3Br)c2)cc1 | – | inconclusive: 25.1 µM [inhibitor, single point] |
| C#CCn1c(=NC(=O)CSC(C)=O)sc2cc(F)ccc21 | – | inconclusive: 10 µM [activator, partial curve] |
| Cn1c(SCc2n[nH]c(=S)o2)nnc1-c1ccccc1 | inactive: 12.9% | – |
| COc1ccc(N(CC(=O)Nc2cc(C)ccc2OC)S(=O)(=O)c2c(C)noc2C)cc1 | – | inconclusive: 12.6 µM [inhibitor, partial curve] |
| Cc1c(Cl)cccc1N1C(=O)CC(NNC(=O)c2cccnc2)C1=O (configuration not stated) | inconclusive: -31.7% [inhibitor] [at 46.1 µM] | – |
| Cc1ccc(-c2nc(NC(=O)CSc3nnnn3-c3ccccc3)ns2)cc1 | inactive: 7.09% [at 46.1 µM] | – |
| Cc1cccc(-c2ncc(CN3CCCC(CO)(Cc4cccc(Cl)c4)C3)cn2)c1 (configuration not stated) | – | inconclusive: 10 µM [activator, single point] |
| O=C(CCCn1c(=S)[nH]c2ccccc2c1=O)NC1CCCC1 | inactive: 1.68% [at 46.1 µM] | – |
| CC(C)(C)c1cnnn1-c1ccc(C=O)cc1 | – | inconclusive: 0.004 µM [activator, full curve, poor fit] |
| CC(C)(C)Nc1nc(SCc2ccccc2)nc(N2CCOCC2)n1 | – | inconclusive: 12.6 µM [inhibitor, single point] |
| COc1ccc(N(C)C(=O)c2oc(=O)c3ccccc3c2-c2ccccc2)c(OC)c1 | – | inconclusive: 25.1 µM [inhibitor, single point] |
